Source: patent publication US20220389066A1 (Affibody, published 2022)

T1: boxA(disulfide), disulfide linked form of A-box domain of HMGB1 (human, UniProt P09429 1-89, disulfide C23-C45)
T1 construct: also called b-boxA(disulfide)
T1 sequence: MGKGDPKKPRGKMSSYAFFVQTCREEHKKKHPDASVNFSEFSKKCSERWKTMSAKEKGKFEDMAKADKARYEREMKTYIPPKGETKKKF

T2: HMGB1(disulfide), disulfide linked form of full-length HMGB1 (HMGB1C23-C45C106h) (rat, UniProt P63159 1-215, disulfide C23-C45; C106 reduced)
T2 construct: unlabelled in Biacore and Attana; also called b-HMGB1(disulfide)
T2 sequence: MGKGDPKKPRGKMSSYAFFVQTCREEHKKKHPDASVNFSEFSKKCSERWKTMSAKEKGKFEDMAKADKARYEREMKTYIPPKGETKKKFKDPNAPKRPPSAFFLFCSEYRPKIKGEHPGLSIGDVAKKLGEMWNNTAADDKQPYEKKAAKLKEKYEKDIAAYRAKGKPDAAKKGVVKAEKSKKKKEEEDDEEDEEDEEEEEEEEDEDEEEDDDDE

T3: HMGB1(red), fully reduced form of full-length HMGB1 (HMGB1C23hC45hC106h) (rat, UniProt P63159 1-215, all cysteines reduced (C23h, C45h, C106h))
T3 construct: Produced by HMGBiotech; also called HMGB1(reduced); b-HMGB1(red)
T3 sequence: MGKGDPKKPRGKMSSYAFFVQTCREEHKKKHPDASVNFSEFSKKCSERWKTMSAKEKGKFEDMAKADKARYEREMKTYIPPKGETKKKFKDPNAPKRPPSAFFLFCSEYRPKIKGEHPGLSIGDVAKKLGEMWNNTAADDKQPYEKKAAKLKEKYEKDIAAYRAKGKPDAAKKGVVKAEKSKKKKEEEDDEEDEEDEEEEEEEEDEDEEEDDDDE


What was measured:
[1] = target: T4, GST-boxA(red), reduced form of A-box domain of HMGB1 with N-terminal GST tag (human, cysteines reduced); assay: ELISA titration; captured periplasmic Z-ABD, dilution series of b-GST-boxA(red)
T4 construct: Used biotinylated (b-GST-boxA(red)) in ELISA; also called b-GST-boxA(red)
Procedure: (§1) EC50 analysis of Z variants: A sub-group of HMGB1 binding Z variants was subjected to an analysis of their response against a dilution series of b-GST-boxA(red) or b-GST-boxB(red) following the procedure described above. The Z variants ZH 01 (SEQ ID NO:1), ZH 02 (SEQ ID NO:2) and ZH 03 (SEQ ID NO:3) were diluted 1:16 in PBST 0.05% and target protein b-GST-boxA(red) was diluted in PBSC (PBS with 0.5% casein (Sigma cat no. C-8654)) with 0.5-1 mM DTT and added at a concentration of 1 μM and diluted stepwise 1:5 down to 60 μM. The Z variants ZH 30 (SEQ ID NO:30) and ZH 31 (SEQ ID NO:31) were diluted 1:16 in PBST 0.05% and b-GST-boxB(red) was diluted in PBSC without DTT present and added at a concentration of 7 μM and diluted stepwise 1:5 down to 90 μM. As a background control, all Z variants were also assayed with no target protein added. Periplasm containing the ABD moiety only was used as a negative control. In the same assay, the selectivity of the Z variants was tested by incubating periplasm samples with the opposite HMGB1 domain (i.e. b-GST-boxA(red) or b-GST-boxB(red)) than the one used as target in selection, added at a concentration of 1000 nM. Data were analyzed using GraphPad Prism 5 and non-linear regression, and EC50 values (the half maximal effective concentration) were calculated.
EC50 analysis of Z variants: A subset of Z variants having the highest ELISA values in the ELISA screening experiments described above was selected and subjected to a target titration in ELISA format. Periplasm samples were incubated with a serial dilution of either b-GST-boxA(red) or b-GST-boxB(red). Obtained values were analyzed and EC50 values calculated (Table 5).

[2] = target: T1, boxA(disulfide), disulfide linked form …; assay: ELISA; periplasmic Z-ABD captured on anti-ABD antibody, 1000 nM b-boxA(disulfide)
[3] = target: T4, GST-boxA(red), reduced form of A-box …; assay: ELISA; periplasmic Z-ABD captured on anti-ABD antibody, 2 nM b-GST-boxA(red)
Procedure: (§2) ELISA screening of Z variants against reduced A-box and B-box: The binding of Z variants to HMGB1 was analyzed in ELISA assays. Half-area 96-well ELISA plates (Greiner, cat. no. 675061) were coated at 4° C. overnight with 2 μg/ml of an anti-ABD goat antibody (produced in-house) diluted in coating buffer (50 mM sodium carbonate, pH 9.6; Sigma, cat. no. C3041). The antibody solution was poured off and the wells were washed in water and blocked with 100 μl of PBSC (PBS supplemented with 0.5% casein; Sigma, cat. no. C8654) for 1-3 h at RT. The blocking solution was discarded and 50 μl periplasmic solutions, diluted 1:16 with PBST 0.05%, were added to the wells and incubated for 1.5 to 2.5 h at RT under slow agitation. As a negative control, periplasmic ABD was added. The supernatants were poured off and the wells were washed 4 times with PBST 0.05%. Then, 50 μl of either b-GST-boxA(red), at a concentration of 2 nM, or b-GST-boxB(red), at a concentration of 100 nM, in PBSC+1-2 mM DTT, was added to each well of A-box binding Z-variants or B-box binding Z-variant, respectively. The plates were incubated for 1 h at RT followed by washes as described above. Streptavidin conjugated HRP (Thermo Scientific, cat. no. N100) diluted 1:30,000 in PBSC+1-2 mM DTT, was added to the wells and the plates were incubated for approximately 45 min. After washing as described above, 50 μl ImmunoPure TMB substrate (Thermo Scientific, cat. no. 34021) was added to the wells and the plates were treated according to the manufacturer's recommendations. The absorbance at 450 nm was measured using a multi-well plate reader, Victor3 (Perkin Elmer).
ELISA screening of Z variants against reduced A-box and B-box: The clones obtained after four cycles of selection were produced in 96-well plates and screened for b-GST-boxA(red) or b-GST-boxB(red) binding activity in ELISA.

[4] = target: T2, HMGB1(disulfide), disulfide linked form …; assay: ELISA; periplasmic Z-ABD captured on anti-ABD antibody, 100 nM b-HMGB1(disulfide)
[5] = target: T5, GST-boxB(red), reduced form of B-box domain of HMGB1 with N-terminal GST tag (human, cysteine reduced); assay: ELISA; periplasmic Z-ABD captured on anti-ABD antibody, 100 nM b-GST-boxB(red)
T5 construct: Used biotinylated (b-GST-boxB(red)) in ELISA; also called b-GST-boxB(red)
Procedure: as §2, with “Streptavidin conjugated HRP (Thermo Scientific, cat. no. N100) diluted 1:30,000 in PBSC+1-2 mM DTT, was added to the wells and the plates were incubated for approximately 45 min. After washing as described above, 50 μl ImmunoPure TMB substrate (Thermo Scientific, cat. no. 34021) was added to the wells and the plates were treated according to the manufacturer's recommendations.” left out, “Elmer). […]” for “Elmer).”

[6] = target: T5, GST-boxB(red), reduced form of B-box …; assay: ELISA titration; captured periplasmic Z-ABD, dilution series of b-GST-boxB(red)
Procedure: as §1, with “In the same assay, the selectivity of the Z variants was tested by incubating periplasm samples with the opposite HMGB1 domain (i.e. b-GST-boxA(red) or b-GST-boxB(red)) than the one used as target in selection, added at a concentration of 1000 nM.” left out
EC50 analysis of Z variants: A subset of Z variants having the highest ELISA values in the ELISA screening experiments described above was selected and subjected to a target titration in ELISA format. […] Obtained values were analyzed and EC50 values calculated (Table 5).

[7] = target: T3, HMGB1(red), fully reduced form of …; assay: SPR (Biacore 2000); Z-ABD captured on HSA, analyte injected (8.3 and 25 nM), 1.5 mM DTT; 1:1 Langmuir model
Procedure: In a third experiment, ZA3975 was analyzed for binding to HMGB1(red) under reduced conditions (1.5 mM DTT included in the sample and running buffer). The ligand ZA3975 was diluted in HBS-EP buffer to a concentration of 100 nM and injected during 4 min. The analyte, HMGB1(red), was diluted in HBS-EP buffer to a concentration within the range of 8.3 to 675 nM and injected during 4 min, followed by dissociation in running buffer for 20 min. After dissociation, the surfaces were regenerated with three injections of 10 mM HCl.
Biacore kinetic and specificity analysis: The interactions of the A-box binding Z-ABD polypeptides ZA3812 (SEQ ID NO:35) and ZA3914 (SEQ ID NO:36) with four different HMGB1 variants were analyzed in a Biacore instrument by injecting various concentrations of HMGB1 variants over a surface containing ZA3812 and ZA3914, respectively, captured on immobilized HSA. […] In addition, the interaction of the B-box binding Z-ABD polypeptide ZA3975 (SEQ ID NO:37) was analyzed for binding to HMGB1(red) in the same manner.

Binder | EC50 [1] [nM] | ELISA response (absorbance 450 nm) [2] [AU] | response relative to the blank control [2] [x blank control] | ELISA response (absorbance 450 nm) [3] [AU] | response relative to the blank control [3] [x blank control] | ELISA response (absorbance 450 nm) [4] [AU] | response relative to the blank control [4] [x blank control] | response relative to the blank control [5] [x blank control] | EC50 [6] [nM] | Kd [7] [nM] | koff [7] [s⁻¹] | kon [7] [M⁻¹ s⁻¹]
ZH 03 as periplasmic ABD fusion AQHDEALE-[ZH 03]-VDYV-[ABD]-YVPG (designed binder, domain: GA3) AQHDEALEVDAKYAKEAWQAMEEILWLPNLTNTQQLAFIYKLEDDPSQSSELLSEAKKLNDSQAPKVDYVLAEAKVLANRELDKYGVSDYYKNLINNAKTVEGVKALIDEILAALPYVPG | 2.7 | 1.17 | ≥ 3 | 0.6 | ≥ 3 | 2.96 | ≥ 3 | – | – | – | – | –
ZH 02 as periplasmic ABD fusion AQHDEALE-[ZH 02]-VDYV-[ABD]-YVPG (designed binder, domain: GA3) AQHDEALEVDAKYAKEAEDAMHEILWLPNLTWEQQKAFIYKLEDDPSQSSELLSEAKKLNDSQAPKVDYVLAEAKVLANRELDKYGVSDYYKNLINNAKTVEGVKALIDEILAALPYVPG | 5.6 | 2.02 | ≥ 3 | 0.2 | ≥ 3 | 1.17 | ≥ 3 | – | – | – | – | –
ZH 30 as periplasmic ABD fusion AQHDEALE-[ZH 30]-VDYV-[ABD]-YVPG (designed binder, domain: GA3) AQHDEALEVDAKYAKEAWSAEQEIWDLPNLTLQQFQAFIMKLLDDPSQSSELLSEAKKLNDSQAPKVDYVLAEAKVLANRELDKYGVSDYYKNLINNAKTVEGVKALIDEILAALPYVPG | – | – | – | – | – | – | – | ≥ 2.3 | 6.9 | – | – | –
ZH 01 as periplasmic ABD fusion AQHDEALE-[ZH 01]-VDYV-[ABD]-YVPG (designed binder, domain: GA3) AQHDEALEVDAKYAKEDWDAFWEIIWLPNLTDAQQRAFIYKLEDDPSQSSELLSEAKKLNDSQAPKVDYVLAEAKVLANRELDKYGVSDYYKNLINNAKTVEGVKALIDEILAALPYVPG | 2.2 | 3.06 | ≥ 3 | 0.7 | ≥ 3 | 3.07 | ≥ 3 | – | – | – | – | –

Other lines, results leading:

EC50 [1] [nM] | ELISA response (absorbance 450 nm) [2] [AU] | response relative to the blank control [2] [x blank control] | ELISA response (absorbance 450 nm) [3] [AU] | response relative to the blank control [3] [x blank control] | ELISA response (absorbance 450 nm) [4] [AU] | response relative to the blank control [4] [x blank control] | response relative to the blank control [5] [x blank control] | EC50 [6] [nM] | Kd [7] [nM] | koff [7] [s⁻¹] | kon [7] [M⁻¹ s⁻¹] | Binder
– | – | – | – | – | – | – | ≥ 2.3 | 9.9 | – | – | – | ZH 31 as periplasmic ABD fusion AQHDEALE-[ZH 31]-VDYV-[ABD]-YVPG (designed binder, domain: GA3) AQHDEALEVDAKYAKEAWLAEQEIWQLPNLTEAQFQAFILKLIDDPSQSSELLSEAKKLNDSQAPKVDYVLAEAKVLANRELDKYGVSDYYKNLINNAKTVEGVKALIDEILAALPYVPG
– | – | – | – | – | – | – | – | – | 0.11 | 0.00028 | 2.5e+06 | ZA3975 ([ZH 32]-ASGS-PP013) (designed binder) AEAKYAKEAWLAEQEIWQLPNLTEAQFQAFILKLIDDPSQSSELLSEAKKLNDSQAPKASGSLAEAKEAANAELDSYGVSDFYKRLIDKAKTVEGVEALKDAILAALP
